Measurements from the supplement of paper PMC10320760.
The data scatter; read single values as rough.

B1: Ydj1; a variant is named by its letters at X, in order (parent)
chain: MVKETKFYDILGVPVTATDVEIKKAYRKCALKYHPDKNPSEEAAEKFKEASAAYEILSDPEKRDIYDQFGEDGLSGAGGAGGFPGGGFGFGDDIFSQFFGAGGAQRPRGPQRGKDIKHEISASLEELYKGRTAKLALNKQILCKECEGRGGKKGAVKKCTSCNGQGIKFVTRQMGPMIQRFQTECDVCHGTGDIIDPKDRCKSCNGKKVENERKILEVHVEPGMKDGQRIVFKGEADQAPDVIPGDVVFIVSERPHKSFKRDGDDLVYEAEIDLLTAIAGGEFALEHVSGDWLKVGIVPGEVIAPGMRKVIEGKGMPIPKYGGYGNLIIKFTIKFPENHFTSEENLKKLEEILPPRIVPAIPKKATVDECVLADFDPAKYNRTRASRGGANYDSDEEEQGGEGVQCXXX

Variants of: B1
Assay: enrichment factor, frequency at 37 °C / frequency at 25 °C (thermotolerance selection) (ratio); higher = more growth at 37 °C, higher likelihood of farnesylation
Conditions: with Saccharomyces cerevisiae ydj1Δ (yWS304); selective temperature 37 °C; reference temperature 25 °C

| Variant | enrichment factor |
| --- | --- |
| APS | 2.06 |
| APR | 0.104 |
| APP | 0.164 |
| APT | 2.66 |
| APW | 1.36 |
| APV | 1.73 |
| APN | 1.82 |
| APQ | 1.8 |
| APY | 2.16 |
| KPR | 0.0652 |
| KPN | 1.23 |
| KPW | 1.17 |
| KPS | 1.61 |
| KPP | 0.158 |
| KPT | 1.44 |
| KPQ | 2.31 |
| KPV | 1.38 |
| YPT | 2.96 |
| YPS | 2.23 |
| YPM | 2.44 |
| YPP | 0.302 |
| YPV | 3.14 |
| YPW | 1.16 |
| YPR | 0.142 |

| Variant | enrichment factor |
| --- | --- |
| YPN | 1.49 |
| YPQ | 2.53 |
| QPS | 1.83 |
| QPQ | 1.7 |
| QPP | 0.255 |
| QPV | 2.48 |
| QPW | 2.07 |
| QPN | 2.09 |
| QPR | 0.144 |
| QPT | 1.99 |
| LPT | 2.23 |
| LPN | 1.86 |
| LPS | 2.54 |
| LPV | 1.81 |
| LPP | 0.158 |
| LPW | 1.16 |
| LPQ | 1.97 |
| LPR | 0.295 |
| IPS | 1.99 |
| IPT | 2.63 |
| IPR | 0.0943 |
| IPN | 1.62 |
| IPP | 0.258 |
| IPV | 1.51 |

| Variant | enrichment factor |
| --- | --- |
| IPQ | 1.5 |
| IPW | 1.02 |
| NPT | 1.76 |
| NPR | 0.187 |
| NPS | 2.06 |
| NPP | 0.254 |
| NPN | 1.47 |
| NPV | 1.53 |
| NPQ | 1.68 |
| NPW | 1.51 |
| FPY | 1.77 |
| FPR | 0.127 |
| FPP | 0.918 |
| FPT | 2.11 |
| FPS | 1.76 |
| FPN | 1.79 |
| FPQ | 2.22 |
| FPW | 1.16 |
| FPV | 1.96 |
| CPV | 1.58 |
| CPN | 2.08 |
| CPR | 0.134 |
| CPQ | 1.72 |
| CPT | 1.54 |

| Variant | enrichment factor |
| --- | --- |
| CPW | 0.761 |
| CPP | 0.137 |
| CPS | 1.45 |
| DPV | 0.919 |
| DPS | 1.79 |
| DPR | 0.177 |
| DPT | 0.385 |
| DPW | 0.288 |
| DPP | 0.203 |
| DPQ | 1.75 |
| DPY | 0.543 |
| DPN | 0.32 |
| EPN | 1.19 |
| EPP | 0.305 |
| EPT | 1.22 |
| EPS | 2.12 |
| EPR | 0.211 |
| EPY | 1.44 |
| EPQ | 1.98 |
| EPW | 1.11 |
| EPV | 1.54 |
| TPW | 1.17 |
| TPP | 0.188 |
| TPS | 2.78 |

| Variant | enrichment factor |
| --- | --- |
| TPR | 0.155 |
| TPT | 1.84 |
| TPV | 2.52 |
| TPQ | 2.17 |
| TPN | 1.25 |
| PPN | 1.49 |
| PPS | 1.74 |
| PPQ | 1.72 |
| PPW | 1.06 |
| PPP | 0.178 |
| PPR | 0.202 |
| PPT | 1.61 |
| PPV | 1.6 |
| HPR | 0.169 |
| HPW | 1.22 |
| HPV | 2.33 |
| HPS | 1.67 |
| HPQ | 1.91 |
| HPT | 2.22 |
| HPN | 1.65 |
| HPP | 0.236 |
| SPP | 0.158 |
| SPN | 2.02 |
| SPS | 1.85 |

| Variant | enrichment factor |
| --- | --- |
| SPT | 2.08 |
| SPQ | 1.91 |
| SPR | 0.12 |
| SPV | 1.37 |
| SPW | 1.72 |
| MPT | 1.9 |
| MPW | 1.1 |
| MPP | 0.22 |
| MPS | 1.47 |
| MPN | 1.64 |
| MPV | 2.55 |
| MPQ | 1.51 |
| MPR | 0.151 |
| VPS | 2.01 |
| VPW | 0.945 |
| VPR | 0.174 |
| VPQ | 1.77 |
| VPN | 2.34 |
| VPV | 3.68 |
| VPT | 2.24 |
| VPP | 0.17 |
| WPV | 0.988 |
| WPS | 0.82 |
| WPM | 1.16 |

| Variant | enrichment factor |
| --- | --- |
| WPR | 0.257 |
| WPP | 1.74 |
| WPQ | 1.33 |
| WPW | 1.66 |
| WPT | 1.82 |
| WPN | 1.47 |
| GPS | 2.02 |
| GPQ | 1.75 |
| GPW | 0.806 |
| GPR | 0.138 |
| GPV | 1.84 |
| GPY | 1.1 |
| GPT | 1.53 |
| GPP | 0.109 |
| GPN | 1.05 |
| RPS | 1.71 |
| RPP | 0.158 |
| RPQ | 1.29 |
| RPN | 1.51 |
| RPW | 0.724 |
| RPT | 1.45 |
| RPR | 0.199 |
| RPV | 1.84 |
